Measurements from patent US20140127129A1 (SCIL PROTEINS, published 2014).
Blank lines part the entries; values can stand above or below the binder they belong to.

Key:
human VEGF-A isoform 165 [1] = target: T1, human VEGF-A isoform 165 (human, UniProt P15692-4 27-191); test: SPR (Biacore), VEGF165 immobilized on chip, 1:1 Langmuir fit
T1 construct: mature; also called VEGF165; hVEGF165
T1 sequence (looked up): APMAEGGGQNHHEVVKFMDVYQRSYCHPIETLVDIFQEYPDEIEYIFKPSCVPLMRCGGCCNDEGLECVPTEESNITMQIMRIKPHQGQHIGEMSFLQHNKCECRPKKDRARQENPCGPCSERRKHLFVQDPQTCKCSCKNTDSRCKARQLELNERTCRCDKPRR
Text: (§1) The obtained data were processed via the BIAevaluation software and 1:1-Langmuir-fitting.

human VEGF-A isoform 165 [2] = target: T1, human VEGF-A isoform 165; test: SPR (Biacore), VEGF165 immobilized on chip
Text: as §1

human VEGF-A isoform 165 [3] = target: T1, human VEGF-A isoform 165; test: SPR (Biacore), 260 RU VEGF165 immobilized on CM5 chip, 0 - 1000 nM 40401 as analyte, 1:1 Langmuir fit
Text: as §1

human VEGF-A isoform 121 [4] = target: T2, human VEGF-A isoform 121 (human, UniProt P15692-9 27-147); test: SPR (Biacore), 245 RU VEGF121 immobilized on CM5 chip, 0 - 1000 nM 40401 as analyte, 1:1 Langmuir fit
T2 construct: Bought protein; also called VEGF121; hVEGF121
T2 sequence (looked up): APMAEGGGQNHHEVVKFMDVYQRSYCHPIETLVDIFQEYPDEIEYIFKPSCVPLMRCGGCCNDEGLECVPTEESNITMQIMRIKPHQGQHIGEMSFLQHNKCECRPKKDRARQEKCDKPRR
Text: as §1

human VEGF-A isoform 121 [5] = target: T2, human VEGF-A isoform 121; test: SPR (Biacore), VEGF121 immobilized on chip
Text: as §1

human VEGF-A isoform 165 [6] = target: T1, human VEGF-A isoform 165; test: concentration dependent ELISA, VEGF165 coated, apparent KD
Experimental: (§2) As negative control, NGF was used (symbol—star-connected by a broken line).
(§3) Binding of ubiquitin-based variants to human VEGF-A was assayed by a concentration dependent ELISA. […] Antigen coating with 1 to 2.5 μg/ml per well was performed at 4° C. overnight. After washing the plates with PBS, 0.1% Tween 20 pH 7.4 (PBST) the wells were blocked using blocking solution (PBS pH 7.4; 3% BSA; 0.5% Tween 20) at room temperature for 2 h. Wells were washed again three times with PBST. Different concentrations of modified ubiquitin based VEGF-A binding protein were then incubated in the wells at RT for 1 h (see FIG. 3). After washing the wells with PBST, the anti-Ubi fab fragment (a-Ubi-Fab) POD conjugate was applied in an appropriate dilution (for example, 1:6500) in PBST. The plate was washed three times with 300 μl buffer PBST/well. 50 μl TMB substrate solution (KEM-EN-Tec) were added to each well and was incubated. The reaction was stopped by adding 0.2 M H₂SO₄ per well. The ELISA plates were read out using the TECAN Sunrise ELISA-Reader. The photometric absorbance measurements were done at 450 nm using 620 nm as a reference wavelength.

human VEGF-A isoform 121 [7] = target: T2, human VEGF-A isoform 121; test: cell-based or functional assay
human VEGF-A isoform 121 [8] = target: T2, human VEGF-A isoform 121; test: SPR (Biacore), VEGF121 immobilized on chip, 1:1 Langmuir fit
Text: as §1

human VEGF-A isoform 121 [9] = target: T2, human VEGF-A isoform 121; test: concentration dependent ELISA, VEGF121 coated, apparent KD; ELISA, not Biacore; hVEGF121
Experimental: as §2, §3

human VEGF-A isoform 121 [10] = target: T2, human VEGF-A isoform 121; test: cell-based or functional assay; remark: listed apart in the source
human VEGF-A isoform 121 [11] = target: T2, human VEGF-A isoform 121; test: concentration dependent ELISA, VEGF121 coated, apparent KD
Experimental: as §3

Kd (human VEGF-A isoform 165 [1]): 22 nM | koff (human VEGF-A isoform 165 [2]): 0.00245 s⁻¹ | Ka (human VEGF-A isoform 165 [3]): 4.56e+07 M⁻¹ | Kd (human VEGF-A isoform 165 [3]): 21.9 nM | kon (human VEGF-A isoform 165 [3]): 112000 M⁻¹ s⁻¹ | Ka (human VEGF-A isoform 121 [4]): 6.82e+07 M⁻¹ | Kd (human VEGF-A isoform 121 [4]): 14.7 nM | kon (human VEGF-A isoform 121 [4]): 120000 M⁻¹ s⁻¹ | koff (human VEGF-A isoform 121 [5]): 0.00176 s⁻¹ | Kd (human VEGF-A isoform 165 [6]): 2.2 nM | IC50, inhibition of VEGF-induced HUVEC proliferation (WST reagent, E450-620nM) (human VEGF-A isoform 121 [7]): 8.08 nM | Kd (human VEGF-A isoform 121 [8]): 15 nM | Kd (human VEGF-A isoform 121 [9]): 2.5 nM | Cell proliferation Assay IC50 (human VEGF-A isoform 121 [10]): 8 nM
B1: VEGF-A binding protein 40401 (designed binder)
chain: MQIFVYTDTGKTITLEVEPSDTIENVKAKIQDKEGIPPDQQRLIWAGKQLEDGRTLSDYNIDVAEYLGISWMPALHLVLRLRGGGIGMQIFVATDTGKTITLEVEPSDTIENVKAKIQDKEGIPPDQQRLIWAGKQLEDGRTLSDYNIRDTVSLHLVLRLRAA
notes: also called SPVF-11-1211_A1_TsX6

Kd (human VEGF-A isoform 165 [1]): 14 nM | Kd (human VEGF-A isoform 121 [11]): 2.3 nM | Kd (human VEGF-A isoform 121 [8]): 16 nM | Cell proliferation Assay IC50 (human VEGF-A isoform 121 [10]): 10 nM
B2: VEGF-A binding protein 60323 (designed binder)
chain: MQIFVYTDTGKTITLEVEPSDTIENVKAKIQDKEGIPPDQQRLIWAGKQLEDGRTLSDYNIDVAEYLGISWMPALHLVLRLRAAGIGMQIFVDTETGKTITLEVEPSDTIENVKAKIQDKEGIPPDQQRLIWAGKQLEDGRTLSDYNIEQLNWLHLVLRLRAA
notes: Hetero-dimeric modified ubiquitin with an 8 amino acid insertion in the first monomer

Kd (human VEGF-A isoform 121 [11]): 21 nM
B3: VEGF-A binding protein 59603 (designed binder)
chain: MQIFVYTDTGKTITLEVEPSDTIENVKAKIQDKEGIPPDQQRLIWAGEQLEDGRTLSDYNIDVAEYLGISWMPALHLVLRLRAAGIGMRIFVYTATGKTITLEVEPSDTIENVKAKIQDKEGIPPDQQRLIWAGKQLEDGRTLSDYNISEKKKLHLVLRLRAA
notes: as for B2

Kd (human VEGF-A isoform 121 [11]): 2.9 nM
B4: VEGF-A binding protein 59517 (designed binder)
chain: MQIFVYTDTGKTITLEVEPSDTIENVKAKIQDKEGIPPDQQRLIWAGKQLEDGRTLSDYNIDVAEYLGISWMPALHLVLRLRAAGIGMQIFVLTSTGKTITLEVEPSDTIENVKAKIQDKEGIPPDQQRLIWAGKQLEDGRTLSDYNITRNYHLHLVLRLRAA
notes: as for B2
